# Assay results: PubChem BioAssay AID588591 (National Center for Advancing Translational Sciences (NCATS), 2011)
# Screen size: about 390,000 compounds; about 4,700 (1.2%) were called active. The inconclusive results got no clear call from the source; some entries with a clear call stand among them for comparison. Calls follow the shape of the dose curve; as a rule, active = well fitted inhibition curve with a large enough effect; inconclusive = small, poorly fitted or top-dose-only effect, or another doubt; inactive = no such curve, though single readings can be large or run the other way. Where the call is inconclusive, the potency comes from a doubtful curve fit.
# Molecular target: DNA polymerase eta (Homo sapiens) (UniProt Q9Y253)
# Assay: qHTS for Inhibitors of Polymerase Eta
# Conditions: recombinant Pol eta, fluorescent DNA replication assay; series mostly up to 114 µM; activity change, negative = inhibition: at the top concentration
# Method in brief: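 Pol eta at 10 nM preincubated with compounds 15 min at room temperature; reaction started with fluorescent substrate (50 nM final) and read kinetically at 0 and 10 min.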
# % is scaled to controls: 0 for no effect and ±100 for the full control effect; potency is read from the fitted curve at half-maximal effect; tags tell the direction and shape of the fitted curve.
# Chain of UniProt Q9Y253 (Q9Y253 whole entry, looked up): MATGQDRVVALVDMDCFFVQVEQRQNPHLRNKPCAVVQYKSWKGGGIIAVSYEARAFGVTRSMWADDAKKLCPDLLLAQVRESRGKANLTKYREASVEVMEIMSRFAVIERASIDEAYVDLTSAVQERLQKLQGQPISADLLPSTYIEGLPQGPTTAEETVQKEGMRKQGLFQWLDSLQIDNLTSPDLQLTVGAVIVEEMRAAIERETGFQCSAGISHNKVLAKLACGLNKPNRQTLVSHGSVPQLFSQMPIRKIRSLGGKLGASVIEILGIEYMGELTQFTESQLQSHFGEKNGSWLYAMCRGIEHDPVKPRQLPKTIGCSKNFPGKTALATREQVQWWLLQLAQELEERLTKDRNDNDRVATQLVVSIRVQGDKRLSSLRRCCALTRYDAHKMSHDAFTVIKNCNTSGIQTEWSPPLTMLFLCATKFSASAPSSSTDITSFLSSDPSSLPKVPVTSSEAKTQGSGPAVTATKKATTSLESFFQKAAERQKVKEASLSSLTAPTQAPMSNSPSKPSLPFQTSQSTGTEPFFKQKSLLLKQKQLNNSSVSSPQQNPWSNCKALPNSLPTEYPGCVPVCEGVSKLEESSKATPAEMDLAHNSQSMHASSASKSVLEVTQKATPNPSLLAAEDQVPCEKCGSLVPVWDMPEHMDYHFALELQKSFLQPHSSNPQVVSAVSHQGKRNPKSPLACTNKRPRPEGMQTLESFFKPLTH
SMILES,Potency,"activity change, negative = inhibition"
Cc1cccc(NC(=O)CCOc2ccccc2)c1,"inconclusive: 89.1 µM [inhibitor, partial curve, poor fit]",–
CCc1ccc(NC(=O)CN2CCCN(S(=O)(=O)c3ccc(F)cc3)CC2)cc1,"inconclusive: 89.1 µM [inhibitor, partial curve, poor fit]",–
Cc1cc(=O)oc2cc(Oc3ccc(C(N)=O)cc3[N+](=O)[O-])ccc12,–,inactive: -8.93%
O=C(CSc1nnc(SCc2ccccc2)s1)N/N=C/C=C/c1ccco1,active: 2.82 µM,–
CCOC(=O)c1[nH]c(=S)n(-c2ccccc2)c1C(=O)OCC,–,inactive: 0.201%
CCN(CC)S(=O)(=O)c1cccc(C(=O)N/N=C/c2ccccn2)c1,"inconclusive: 89.1 µM [inhibitor, partial curve, poor fit]",–
CCNC(=S)N/N=C(\C)c1ccc2ccccc2c1OC(F)F,"inconclusive: 100 µM [inhibitor, partial curve, poor fit]",–
CCOc1ccccc1CNc1nc2ccccc2n1C,–,inactive: 8.31%
O=C1c2ccccc2/C(=C\C#Cc2ccccn2)N1c1ccccc1,"inconclusive: 79.4 µM [inhibitor, partial curve, poor fit]",–
O=C(O)c1ccccc1NS(=O)(=O)c1ccc(NNC(=S)Nc2ccc(OC(F)F)cc2)c([N+](=O)[O-])c1,active: 25.1 µM,–
O=C(NN=C1CCN(Cc2ccccc2)CC1)c1cc2ccccc2cc1O,"inconclusive: 15.8 µM [inhibitor, full curve, poor fit]",–
COc1cc(Cl)c(C)cc1NC(=O)C1CCCN(c2ncnc3onc(-c4ccc(F)cc4)c23)C1 (centres undefined),–,inactive: -9.6%
S=C(NCCc1ccccc1)N/N=C/c1ccccc1Cl,–,inactive: -11.3%
O=C1c2ccccc2-c2onc3ccc(Oc4ccccc4)c1c23,"inconclusive: 8.91 µM [inhibitor, full curve, poor fit]",–
CN(C)c1ccc(/C=C/c2nc3ccccc3c(=O)n2-c2ccc(C(=O)O)cc2)cc1,active: 25.1 µM,–
CN1CCN(C(c2ccc(Br)cc2)c2cc(Cl)c3cccnc3c2O)CC1 (centres undefined),–,inactive: -24.8%
COc1ccc(NC(=O)NNC(=O)c2ccc(Cl)cc2Cl)cc1OC,"inconclusive: 100 µM [inhibitor, partial curve, poor fit]",–
COc1ccc(S(=O)(=O)c2cc3cc(C(C)(C)C)cc(O)c3oc2=O)cc1,"inconclusive: 44.7 µM [inhibitor, partial curve, poor fit]",–
Cc1cccc(/C=C/C(=O)c2cc(Br)ccc(=O)c2O)c1,active: 31.6 µM,–
COc1cccc2cc(C(=O)C3=C(O)C(=O)N(CCN(C)C)C3c3ccc(Cl)cc3)oc12 (centres undefined),"inconclusive: 20 µM [inhibitor, full curve, poor fit]",–
O=C1c2ccccc2C(=O)C1c1ccncc1,"inconclusive: 89.1 µM [inhibitor, partial curve, poor fit]",–
CN1CCN(C2=C(Cl)C(=O)c3ccccc3C2=O)CC1,active: 3.55 µM,–

SMILES,Potency,"activity change, negative = inhibition"
COC(C[C@@H]1O[C@@H]1[C@@H](O)[C@@H](C)OCc1ccccc1)OC,–,inactive: -10.6%
COc1cc([N+](=O)[O-])ccc1NC(=O)Cc1ccc(F)cc1,"inconclusive: 89.1 µM [inhibitor, partial curve, poor fit]",–
Cc1ccccc1CN1CCN(c2nc3ccccc3s2)CC1,"inconclusive: 89.1 µM [inhibitor, single point]",–
COC(=O)CCC(=O)OC1(C)C(=O)C2=CN(C3CC3)C(c3ccc(OC)cc3)=CC2=C(Br)C1=O (centres undefined),active: 79.4 µM,–
O=C1Nc2c(Cl)cc(Cl)cc2C1=O,"inconclusive: 28.2 µM [inhibitor, full curve, poor fit]",–
CCS(=O)(=O)N1CC(=O)N(c2cc(C)cc(C)c2)C(C)(C(=O)NC2CCCCC2)C1 (centres undefined),–,inactive: -8.41%
C[C@H](NC(=O)c1nc[nH]c1C(=O)NCc1ccc(CNC(=O)OC(C)(C)C)cc1)C(=O)OCc1ccccc1,"inconclusive: 79.4 µM [inhibitor, partial curve, poor fit]",–
O=C(N/N=C/C(Cl)=C/c1ccc([N+](=O)[O-])cc1)C(=O)Nc1cccc(C(=O)O)c1,active: 50.1 µM,–
COc1cc(/C=N\NC(=O)c2ccc(-c3ccccc3)cc2)cc(OC)c1O,"inconclusive: 14.1 µM [inhibitor, full curve, poor fit]",–
Cc1ccc(NC(=O)N2CCC(NC(=O)c3cccc(C)c3)CC2)cc1,–,inactive: 12.5%
CC(=O)NC(c1ccco1)c1ccc2cccnc2c1O (centres undefined),"inconclusive: 22.4 µM [inhibitor, partial curve, poor fit]",–
O=S(=O)(NCCC1=CCCCC1)c1cccc(Br)c1,"inconclusive: 79.4 µM [inhibitor, partial curve, poor fit]",–
CCOc1ccc(NC(=O)C2CC(=O)N(CCc3ccccc3)C2)cc1OC (centres undefined),"inconclusive: 89.1 µM [inhibitor, partial curve, poor fit]",–
CC(C)C[C@H](NC(=O)c1[nH]cnc1C(=O)N[C@@H](Cc1ccccc1)C(=O)OCc1ccccc1)C(=O)OC(C)(C)C,"inconclusive: 70.8 µM [inhibitor, partial curve, poor fit]",–
Cc1ccc(S(=O)(=O)NCC2CCC(C(=O)NCc3ccco3)CC2)cc1 (centres undefined),"inconclusive: 39.8 µM [inhibitor, partial curve, poor fit]",–
Cc1ccc(-n2nc3c(N4CCCC(C(=O)NCc5ccccc5C)C4)nnc(C)c3c2C)cc1 (centres undefined),"inconclusive: 89.1 µM [inhibitor, single point]",–
NC(=O)c1c(NC(=O)COC(=O)c2ccc(O)c(Cl)c2)sc2c1CCCC2,active: 50.1 µM,–
COc1cccc(NC(=O)CSc2nc(=O)[nH]c3c2CCCC3)c1,–,inactive: -6.28%
CCOc1ccc(NC(=O)c2nn(C)c3c2COc2ccccc2-3)cc1,–,inactive: -15.1%
Cc1nc(CC(=O)Nc2ccc(C(N)=O)cc2)cs1,–,inactive: 4.27%
COc1ccc2cc(OCC(=O)NNC(=O)Nc3ccc(OC)c(OC)c3)ccc2c1,"inconclusive: 35.5 µM [inhibitor, full curve]",–
COc1cc(/C=C(/C#N)c2ccccc2F)ccc1OCc1ccccc1,"inconclusive: 79.4 µM [inhibitor, partial curve, poor fit]",–
